Assay results published in the supplement of paper PMC8728848.
The other results are listed elsewhere or left out.

Legend:
Assay in all cases: glycan array binding signal (z-score within array); higher = stronger binding
Conditions in all cases: glycan notation: IUPAC condensed, linker removed
Glc(a1-4)Glc = biological target: Glc(a1-4)Glc
Method in brief: (§1)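 Glycan array data came from 3228 arrays in the Consortium for Functional Glycomics database, and only arrays with an available protein sequence were kept. Glycan names were put into IUPAC-condensed notation, and columns mapping to the same glycan were averaged. The binding signal is a within-array Z-score, averaged across arrays of one protein sequence run at different concentrations or buffers and across linkers. A negative Z-score can be read as non-binding.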

Glc(a1-6)Glc(a1-6)Glc = biological target: Glc(a1-6)Glc(a1-6)Glc
Method in brief: as §1

Glc(b1-4)Glc = biological target: Glc(b1-4)Glc
Method in brief: as §1

Glc(b1-6)Glc = biological target: Glc(b1-6)Glc
Method in brief: as §1

GlcA(b1-3)Gal = biological target: GlcA(b1-3)Gal
Method in brief: as §1

GlcA(b1-3)GlcNAc = biological target: GlcA(b1-3)GlcNAc
Method in brief: as §1

GlcA(b1-6)Gal = biological target: GlcA(b1-6)Gal
Method in brief: as §1

[1] = biological target: GlcNAc(a1-3)Gal(b1-4)GlcNAc
Method in brief: as §1

[2] = biological target: GlcNAc(a1-4)Gal(b1-3)GlcNAc
Method in brief: as §1

[3] = biological target: GlcNAc(a1-4)Gal(b1-4)GalNAc
Method in brief: as §1

[4] = biological target: GlcNAc(a1-4)Gal(b1-4)GlcNAc
Method in brief: as §1

[5] = biological target: GlcNAc(a1-4)Gal(b1-4)GlcNAc(b1-3)Gal(b1-4)Glc
Method in brief: as §1

[6] = biological target: GlcNAc(a1-4)Gal(b1-4)GlcNAc(b1-3)Gal(b1-4)GlcNAc
Method in brief: as §1

[7] = biological target: GlcNAc(a1-4)Gal(b1-4)GlcNAc(b1-3)Gal(b1-4)GlcNAc(b1-3)Gal(b1-4)GlcNAc
Method in brief: as §1

[8] = biological target: GlcNAc(a1-4)Gal(b1-4)GlcNAc(b1-3)Gal(b1-4)[Fuc(a1-3)]GlcNAc(b1-3)Gal(b1-4)[Fuc(a1-3)]GlcNAc
Method in brief: as §1

[9] = biological target: GlcNAc(a1-6)Gal(b1-4)GlcNAc
Method in brief: as §1

[10] = biological target: GlcNAc(b1-2)Gal(b1-3)GalNAc
Method in brief: as §1

[11] = biological target: GlcNAc(b1-2)Man(a1-3)[GlcNAc(b1-2)Man(a1-6)]Man(b1-4)GlcNAc(b1-4)GlcNAc
Method in brief: as §1

[12] = biological target: GlcNAc(b1-2)Man(a1-3)[GlcNAc(b1-2)Man(a1-6)]Man(b1-4)GlcNAc(b1-4)[Fuc(a1-6)]GlcNAc
Method in brief: as §1

GlcNAc(b1-3)Gal = biological target: GlcNAc(b1-3)Gal
Method in brief: as §1

[13] = biological target: GlcNAc(b1-3)Gal(b1-3)GalNAc
Method in brief: as §1

GlcNAc(b1-3)Gal(b1-4)Glc = biological target: GlcNAc(b1-3)Gal(b1-4)Glc
Method in brief: as §1

[14] = biological target: GlcNAc(b1-3)Gal(b1-4)GlcNAc
Method in brief: as §1

[15] = biological target: GlcNAc(b1-3)Gal(b1-4)GlcNAc(b1-3)Gal(b1-4)GlcNAc
Method in brief: as §1

GlcNAc(b1-3)GalNAc = biological target: GlcNAc(b1-3)GalNAc
Method in brief: as §1

GlcNAc(b1-3)Man = biological target: GlcNAc(b1-3)Man
Method in brief: as §1

[16] = biological target: GlcNAc(b1-3)[GlcNAc(b1-4)][GlcNAc(b1-6)]GlcNAc
Method in brief: as §1

[17] = biological target: GlcNAc(b1-3)[GlcNAc(b1-6)]Gal(b1-4)GlcNAc
Method in brief: as §1

[18] = biological target: GlcNAc(b1-3)[GlcNAc(b1-6)]GalNAc
Method in brief: as §1

[19] = biological target: GlcNAc(b1-4)Gal(b1-4)GlcNAc
Method in brief: as §1

GlcNAc(b1-4)GlcNAc = biological target: GlcNAc(b1-4)GlcNAc
Method in brief: as §1

[20] = biological target: GlcNAc(b1-4)GlcNAc(b1-4)GlcNAc
Method in brief: as §1

[21] = biological target: GlcNAc(b1-4)GlcNAc(b1-4)GlcNAc(b1-4)GlcNAc(b1-4)GlcNAc
Method in brief: as §1

[22] = biological target: GlcNAc(b1-4)GlcNAc(b1-4)GlcNAc(b1-4)GlcNAc(b1-4)GlcNAc(b1-4)GlcNAc
Method in brief: as §1

[23] = biological target: GlcNAc(b1-4)[GlcNAc(b1-6)]GalNAc
Method in brief: as §1

[24] = biological target: GlcNAc(b1-6)Gal(b1-4)GlcNAc
Method in brief: as §1

GlcNAc(b1-6)GalNAc = biological target: GlcNAc(b1-6)GalNAc
Method in brief: as §1

GlcNAc3Prop(b1-4)GlcNAc = biological target: GlcNAc3Prop(b1-4)GlcNAc
Method in brief: as §1

[25] = biological target: GlcNAc6S(b1-3)Gal(b1-4)GlcNAc
Method in brief: as §1

Kdn(a2-3)Gal(b1-3)GalNAc = biological target: Kdn(a2-3)Gal(b1-3)GalNAc
Method in brief: as §1

Kdn(a2-3)Gal(b1-3)GlcNAc = biological target: Kdn(a2-3)Gal(b1-3)GlcNAc
Method in brief: as §1

Kdn(a2-3)Gal(b1-4)Glc = biological target: Kdn(a2-3)Gal(b1-4)Glc
Method in brief: as §1

Kdn(a2-3)Gal(b1-4)GlcNAc = biological target: Kdn(a2-3)Gal(b1-4)GlcNAc
Method in brief: as §1

[26] = biological target: Kdn(a2-3)Gal(b1-4)[Fuc(a1-3)]GlcNAc
Method in brief: as §1

Kdn(a2-6)Gal(b1-4)GlcNAc = biological target: Kdn(a2-6)Gal(b1-4)GlcNAc
Method in brief: as §1

B1: DC-SIGN (Canis lupus), XP_853402 (protein)
chain: AGLCRPCPWKWELFQESCYFFSQTQNTWKESISACQNLRAQLVIINSTEEQKFLKSWNTRNNQRTWIGLSDHHNEGSWKWVDNTPLQLSFWKEGEPNNHGDEDCVELYSDGWNDNRCSTENFWICKKPSSPCPGPGLNDIFEAQKIEWHE
For B1, the “glycan array binding signal (z-score)” value (Glc(a1-4)Glc) was -0.184, the “glycan array binding signal (z-score)” value (Glc(a1-6)Glc(a1-6)Glc) was -0.186 and the “glycan array binding signal (z-score)” value (Glc(b1-4)Glc) was -0.253. For the same binder, the “glycan array binding signal (z-score)” value (Glc(b1-6)Glc) was -0.291, the “glycan array binding signal (z-score)” value (GlcA(b1-3)Gal) was -0.227 and the “glycan array binding signal (z-score)” value (GlcA(b1-3)GlcNAc) was -0.201. The “glycan array binding signal (z-score)” value (GlcA(b1-6)Gal) was -0.19, the “glycan array binding signal (z-score)” value [1] was -0.177 and the “glycan array binding signal (z-score)” value [2] was 0.018. For the same binder, the “glycan array binding signal (z-score)” value [3] was -0.115, the “glycan array binding signal (z-score)” value [4] was -0.136 and the “glycan array binding signal (z-score)” value [5] was -0.428. The “glycan array binding signal (z-score)” value [6] was 0.148, the “glycan array binding signal (z-score)” value [7] was -0.272 and the “glycan array binding signal (z-score)” value [8] was 1.73. The “glycan array binding signal (z-score)” value [9] was -0.105, the “glycan array binding signal (z-score)” value [10] was -0.134 and the “glycan array binding signal (z-score)” value [11] was -0.156. The “glycan array binding signal (z-score)” value [12] was 0.048, the “glycan array binding signal (z-score)” value (GlcNAc(b1-3)Gal) was -0.308 and the “glycan array binding signal (z-score)” value [13] was 0.027. For the same binder, the “glycan array binding signal (z-score)” value (GlcNAc(b1-3)Gal(b1-4)Glc) was -0.235, the “glycan array binding signal (z-score)” value [14] was -0.185 and the “glycan array binding signal (z-score)” value [15] was -0.17. For the same binder, the “glycan array binding signal (z-score)” value (GlcNAc(b1-3)GalNAc) was -0.087, the “glycan array binding signal (z-score)” value (GlcNAc(b1-3)Man) was -0.182 and the “glycan array binding signal (z-score)” value [16] was -0.27. For the same binder, the “glycan array binding signal (z-score)” value [17] was -0.336, the “glycan array binding signal (z-score)” value [18] was -0.161 and the “glycan array binding signal (z-score)” value [19] was -0.111. The “glycan array binding signal (z-score)” value (GlcNAc(b1-4)GlcNAc) was -0.177, the “glycan array binding signal (z-score)” value [20] was -0.266 and the “glycan array binding signal (z-score)” value [21] was -0.267. The “glycan array binding signal (z-score)” value [22] was -0.109, the “glycan array binding signal (z-score)” value [23] was -0.336 and the “glycan array binding signal (z-score)” value [24] was -0.165. For the same binder, the “glycan array binding signal (z-score)” value (GlcNAc(b1-6)GalNAc) was -0.014, the “glycan array binding signal (z-score)” value (GlcNAc3Prop(b1-4)GlcNAc) was -0.304 and the “glycan array binding signal (z-score)” value [25] was -0.305. For the same binder, the “glycan array binding signal (z-score)” value (Kdn(a2-3)Gal(b1-3)GalNAc) was -0.257, the “glycan array binding signal (z-score)” value (Kdn(a2-3)Gal(b1-3)GlcNAc) was -0.152 and the “glycan array binding signal (z-score)” value (Kdn(a2-3)Gal(b1-4)Glc) was -0.305. The “glycan array binding signal (z-score)” value (Kdn(a2-3)Gal(b1-4)GlcNAc) was -0.288, the “glycan array binding signal (z-score)” value [26] was -0.162 and the “glycan array binding signal (z-score)” value (Kdn(a2-6)Gal(b1-4)GlcNAc) was -0.26.
